This assay has as its system rat ileum mucosa.

B1: PK1: Recombinant human prokineticin-1 expressed in HEK 293 cells, FLAG epitope cleaved; preparation holds full-length and a four C-terminal residue truncated product (protein, UniProt P58294 20-105, looked up)
Prokineticin-1: AVITGACERDVQCGAGTCCAISLWLRGLRMCTPLGREGEECHPGSHKVPFFRKRKHHTCPCLPNLLCSRFPDGRYRCSMDLKNINF
modifications: mixture with C-terminally truncated product
Regarding B1, the “effect on tissue conductance (G)” value was “no significant effect”. For the same molecule, the EC50 (read-out: EC50 of PK1-evoked increases in Isc, cumulative concentration-response, basolateral addition) was around 8.2 nM.

The record behind these values is US20080287445A1, “Prokineticin 2 receptor antagonists” (priority 2005, published 2008).
